No constants are given. Whether binding was seen depends on the method and setting. For part of these data: In cells and extracts the contact can be indirect. Some results given as binding are weak or reduced against the parent protein; the word gives no strength.
Assays:
[1] = target: T1, FAAP20 (human (endogenous in HT1080 and HeLa)) (UniProt Q6NZ36); assay: SEC; Superose 6 gel filtration of nuclear extract from HeLa cells; fractions immunoblotted; overlapping profiles (co-fractionation)
T1 sequence: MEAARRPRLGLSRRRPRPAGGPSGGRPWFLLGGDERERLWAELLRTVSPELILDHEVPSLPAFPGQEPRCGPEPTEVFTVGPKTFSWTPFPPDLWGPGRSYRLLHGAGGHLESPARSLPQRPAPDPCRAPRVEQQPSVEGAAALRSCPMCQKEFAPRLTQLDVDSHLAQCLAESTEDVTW

By UniProt entry, the sequences of proteins in these tests, tags left out.
UniProt Q8N2Z9: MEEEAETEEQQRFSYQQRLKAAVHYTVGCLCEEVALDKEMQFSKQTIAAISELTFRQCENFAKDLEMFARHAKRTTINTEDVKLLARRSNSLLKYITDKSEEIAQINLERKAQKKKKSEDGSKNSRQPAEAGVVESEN
UniProt Q8IYD8: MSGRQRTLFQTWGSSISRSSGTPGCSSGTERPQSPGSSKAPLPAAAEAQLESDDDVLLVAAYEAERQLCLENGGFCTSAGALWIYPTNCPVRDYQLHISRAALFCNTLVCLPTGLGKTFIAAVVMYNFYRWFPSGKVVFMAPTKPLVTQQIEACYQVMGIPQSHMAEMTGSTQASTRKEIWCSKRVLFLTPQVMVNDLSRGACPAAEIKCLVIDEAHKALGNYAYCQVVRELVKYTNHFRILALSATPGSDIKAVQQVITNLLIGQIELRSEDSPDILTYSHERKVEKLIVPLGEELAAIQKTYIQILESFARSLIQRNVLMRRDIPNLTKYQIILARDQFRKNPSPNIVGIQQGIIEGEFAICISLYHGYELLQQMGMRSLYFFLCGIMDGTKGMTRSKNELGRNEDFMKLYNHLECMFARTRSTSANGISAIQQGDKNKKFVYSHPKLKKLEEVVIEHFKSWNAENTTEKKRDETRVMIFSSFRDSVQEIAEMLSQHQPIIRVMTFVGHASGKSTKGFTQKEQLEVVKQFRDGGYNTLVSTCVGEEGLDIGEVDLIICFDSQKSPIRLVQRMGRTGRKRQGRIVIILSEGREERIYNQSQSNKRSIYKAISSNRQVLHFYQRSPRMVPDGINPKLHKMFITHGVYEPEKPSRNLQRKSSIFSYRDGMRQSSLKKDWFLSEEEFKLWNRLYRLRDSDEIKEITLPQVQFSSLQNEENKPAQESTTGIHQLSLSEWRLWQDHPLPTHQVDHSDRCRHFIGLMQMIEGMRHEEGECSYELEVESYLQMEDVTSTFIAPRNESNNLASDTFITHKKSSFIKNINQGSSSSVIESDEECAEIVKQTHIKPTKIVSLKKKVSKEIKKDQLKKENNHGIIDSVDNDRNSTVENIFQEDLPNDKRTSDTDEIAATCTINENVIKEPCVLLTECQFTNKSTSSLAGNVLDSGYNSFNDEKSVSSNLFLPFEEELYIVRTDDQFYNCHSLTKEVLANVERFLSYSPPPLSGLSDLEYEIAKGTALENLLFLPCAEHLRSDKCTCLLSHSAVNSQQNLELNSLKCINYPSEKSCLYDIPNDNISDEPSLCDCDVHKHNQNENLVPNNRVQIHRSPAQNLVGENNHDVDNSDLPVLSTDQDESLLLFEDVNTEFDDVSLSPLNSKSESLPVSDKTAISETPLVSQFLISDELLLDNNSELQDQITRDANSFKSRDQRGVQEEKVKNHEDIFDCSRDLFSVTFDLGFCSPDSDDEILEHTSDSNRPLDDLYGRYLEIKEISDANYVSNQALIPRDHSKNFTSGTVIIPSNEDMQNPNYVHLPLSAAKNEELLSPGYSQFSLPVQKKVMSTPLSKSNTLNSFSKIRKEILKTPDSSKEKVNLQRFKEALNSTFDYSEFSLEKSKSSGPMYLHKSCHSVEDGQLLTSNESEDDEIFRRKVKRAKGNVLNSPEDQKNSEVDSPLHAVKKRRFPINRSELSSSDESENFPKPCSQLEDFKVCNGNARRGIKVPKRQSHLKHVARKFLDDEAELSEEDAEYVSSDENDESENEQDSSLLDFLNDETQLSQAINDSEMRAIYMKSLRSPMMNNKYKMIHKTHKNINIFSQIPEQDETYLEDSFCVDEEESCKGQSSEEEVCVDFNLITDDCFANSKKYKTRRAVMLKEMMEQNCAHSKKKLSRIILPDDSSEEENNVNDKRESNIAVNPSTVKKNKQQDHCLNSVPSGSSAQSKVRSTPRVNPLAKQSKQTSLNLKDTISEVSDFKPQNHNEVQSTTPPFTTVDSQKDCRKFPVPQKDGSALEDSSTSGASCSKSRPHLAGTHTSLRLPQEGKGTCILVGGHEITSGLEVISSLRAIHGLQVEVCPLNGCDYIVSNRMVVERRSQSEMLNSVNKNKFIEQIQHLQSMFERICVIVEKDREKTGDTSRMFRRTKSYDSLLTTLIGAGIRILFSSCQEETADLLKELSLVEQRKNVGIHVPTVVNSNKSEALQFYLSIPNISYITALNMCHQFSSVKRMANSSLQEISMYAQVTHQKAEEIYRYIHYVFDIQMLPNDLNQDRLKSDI

[2] = target: T2, FAAP100 (human (endogenous in HT1080 and HeLa)) (UniProt Q0VG06); assay: as above
T2 sequence: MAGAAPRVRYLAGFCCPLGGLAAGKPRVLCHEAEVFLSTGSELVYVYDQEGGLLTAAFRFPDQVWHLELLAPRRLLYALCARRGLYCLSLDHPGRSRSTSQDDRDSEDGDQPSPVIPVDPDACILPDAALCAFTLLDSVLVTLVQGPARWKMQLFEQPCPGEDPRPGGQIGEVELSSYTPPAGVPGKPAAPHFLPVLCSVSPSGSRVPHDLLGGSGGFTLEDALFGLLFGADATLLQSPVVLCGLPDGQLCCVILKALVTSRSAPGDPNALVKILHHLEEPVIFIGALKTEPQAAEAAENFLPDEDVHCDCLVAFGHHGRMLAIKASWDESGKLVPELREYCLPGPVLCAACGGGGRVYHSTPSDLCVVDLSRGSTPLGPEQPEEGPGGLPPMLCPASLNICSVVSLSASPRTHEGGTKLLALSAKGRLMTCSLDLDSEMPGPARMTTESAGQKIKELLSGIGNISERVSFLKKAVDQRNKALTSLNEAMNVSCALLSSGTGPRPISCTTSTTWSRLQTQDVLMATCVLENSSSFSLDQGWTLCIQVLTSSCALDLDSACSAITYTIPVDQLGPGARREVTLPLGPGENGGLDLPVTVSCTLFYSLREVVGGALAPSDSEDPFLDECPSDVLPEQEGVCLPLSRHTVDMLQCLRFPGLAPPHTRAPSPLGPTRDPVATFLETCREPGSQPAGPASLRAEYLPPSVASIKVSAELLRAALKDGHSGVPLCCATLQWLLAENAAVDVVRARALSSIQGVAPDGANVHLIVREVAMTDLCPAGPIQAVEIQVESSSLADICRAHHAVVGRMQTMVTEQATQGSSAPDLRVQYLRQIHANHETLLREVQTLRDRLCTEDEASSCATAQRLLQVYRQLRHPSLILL

[3] = target: MHF1 (human (endogenous in HT1080 and HeLa)) (UniProt Q8N2Z9); assay: as above
[4] = target: T3, FANCA (human (endogenous in HT1080 and HeLa)) (UniProt O15360); assay: as above
T3 sequence: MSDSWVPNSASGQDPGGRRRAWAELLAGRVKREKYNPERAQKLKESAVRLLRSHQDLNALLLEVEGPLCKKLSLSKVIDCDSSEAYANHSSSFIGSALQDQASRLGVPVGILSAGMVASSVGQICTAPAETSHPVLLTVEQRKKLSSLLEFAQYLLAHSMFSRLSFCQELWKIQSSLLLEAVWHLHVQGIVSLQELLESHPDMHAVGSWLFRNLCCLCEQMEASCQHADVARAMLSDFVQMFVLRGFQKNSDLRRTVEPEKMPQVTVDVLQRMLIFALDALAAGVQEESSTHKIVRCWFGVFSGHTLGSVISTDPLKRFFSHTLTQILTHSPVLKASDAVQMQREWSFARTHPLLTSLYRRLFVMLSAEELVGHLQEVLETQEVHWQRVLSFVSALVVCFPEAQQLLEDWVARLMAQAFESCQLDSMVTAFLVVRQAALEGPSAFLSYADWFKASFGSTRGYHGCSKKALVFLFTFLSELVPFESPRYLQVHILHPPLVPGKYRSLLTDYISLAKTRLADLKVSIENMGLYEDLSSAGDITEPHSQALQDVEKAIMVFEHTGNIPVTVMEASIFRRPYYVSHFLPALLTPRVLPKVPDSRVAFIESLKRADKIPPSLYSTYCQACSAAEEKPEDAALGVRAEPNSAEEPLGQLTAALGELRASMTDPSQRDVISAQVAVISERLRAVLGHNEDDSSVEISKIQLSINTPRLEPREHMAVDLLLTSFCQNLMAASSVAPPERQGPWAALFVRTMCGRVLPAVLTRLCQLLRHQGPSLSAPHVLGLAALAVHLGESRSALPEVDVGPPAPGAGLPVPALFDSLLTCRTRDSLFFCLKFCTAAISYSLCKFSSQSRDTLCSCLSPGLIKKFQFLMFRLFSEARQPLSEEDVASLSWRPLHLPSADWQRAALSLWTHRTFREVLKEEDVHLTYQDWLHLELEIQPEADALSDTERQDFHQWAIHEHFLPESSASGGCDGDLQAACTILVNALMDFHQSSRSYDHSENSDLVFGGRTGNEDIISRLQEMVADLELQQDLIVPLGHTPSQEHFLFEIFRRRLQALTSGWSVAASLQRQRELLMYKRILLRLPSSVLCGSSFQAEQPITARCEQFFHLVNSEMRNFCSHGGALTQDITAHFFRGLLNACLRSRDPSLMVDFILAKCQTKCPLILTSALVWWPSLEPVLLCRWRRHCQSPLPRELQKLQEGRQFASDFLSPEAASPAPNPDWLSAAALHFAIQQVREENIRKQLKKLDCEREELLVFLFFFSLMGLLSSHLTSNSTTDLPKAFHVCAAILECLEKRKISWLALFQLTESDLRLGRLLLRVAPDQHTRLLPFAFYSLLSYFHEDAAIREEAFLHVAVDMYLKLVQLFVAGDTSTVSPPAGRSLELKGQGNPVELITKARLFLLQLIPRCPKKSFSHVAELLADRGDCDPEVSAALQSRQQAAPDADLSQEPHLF

[5] = target: FANCM (endogenous) (human (endogenous in HeLa)) (UniProt Q8IYD8); assay: as above
His-Flag tagged FANCM = His-Flag tagged FANCM (UniProt Q8IYD8); assay: co-IP; two-step affinity purification of HF-FANCM from nuclear extract of HT1080 cells (anti-Flag M2 agarose, elution with 3xFlag peptide, then Talon metal affinity resin with 3 mM imidazole); eluate immunoblotted

Measured: binding

B1: endogenous FoxF1 protein (Forkhead box F1) (protein, UniProt Q12946 1-379)
chain: MSSAPEKQQPPHGGGGGGGGGGGAAMDPASSGPSKAKKTNAGIRRPEKPPYSYIALIVMAIQSSPTKRLTLSEIYQFLQSRFPFFRGSYQGWKNSVRHNLSLNECFIKLPKGLGRPGKGHYWTIDPASEFMFEEGSFRRRPRGFRRKCQALKPMYSMMNGLGFNHLPDTYGFQGSAGGLSCPPNSLALEGGLGMMNGHLPGNVDGMALPSHSVPHLPSNGGHSYMGGCGGAAAGEYPHHDSSVPASPLLPTGAGGVMEPHAVYSGSAAAWPPSASAALNSGASYIKQQPLSPCNPAANPLSGSLSTHSLEQPYLHQNSHNAPAELQGIPRYHSQSPSMCDRKEFVFSFNAMASSSMHSAGGGSYYHQQVTYQDIKPCVM
binds: all assays above
